This is one part of the list.
Legend:
Assay in all cases: glycan array binding signal (z-score within array); higher = stronger binding
Details in all cases: glycan notation: IUPAC condensed, linker removed
[1] = molecular target: Neu5Ac(a2-3)Gal(b1-3)GlcNAc
How it was run: (§1)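 Columns mapping to the same glycan were averaged after glycan names were converted to IUPAC-condensed notation. The data come from 3228 arrays in the Consortium for Functional Glycomics database, limited to those with an available protein sequence. Binding is reported as a within-array Z-score averaged across arrays of one protein sequence and across linkers.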

[2] = molecular target: Neu5Ac(a2-3)Gal(b1-3)[Fuc(a1-4)]GlcNAc
How it was run: as §1

[3] = molecular target: Neu5Ac(a2-3)Gal(b1-3)[Neu5Ac(a2-3)Gal(b1-4)]GlcNAc
How it was run: as §1

[4] = molecular target: Neu5Ac(a2-3)Gal(b1-3)[Neu5Ac(a2-6)]GalNAc
How it was run: as §1

Neu5Ac(a2-3)Gal(b1-4)Glc = molecular target: Neu5Ac(a2-3)Gal(b1-4)Glc
How it was run: as §1

[5] = molecular target: Neu5Ac(a2-3)Gal(b1-4)GlcNAc
How it was run: as §1

[6] = molecular target: Neu5Ac(a2-3)Gal(b1-4)GlcNAc(b1-3)Gal(b1-4)GlcNAc
How it was run: as §1

[7] = molecular target: Neu5Ac(a2-3)Gal(b1-4)GlcNAc(b1-3)Gal(b1-4)GlcNAc(b1-3)Gal(b1-4)GlcNAc
How it was run: as §1

[8] = molecular target: Neu5Ac(a2-3)Gal(b1-4)GlcNAc6S
How it was run: as §1

[9] = molecular target: Neu5Ac(a2-3)Gal(b1-4)[Fuc(a1-3)]GlcNAc
How it was run: as §1

[10] = molecular target: Neu5Ac(a2-3)Gal(b1-4)[Fuc(a1-3)]GlcNAc(b1-3)Gal
How it was run: as §1

[11] = molecular target: Neu5Ac(a2-3)Gal(b1-4)[Fuc(a1-3)]GlcNAc(b1-3)Gal(b1-4)GlcNAc
How it was run: as §1

[12] = molecular target: Neu5Ac(a2-3)Gal(b1-4)[Fuc(a1-3)]GlcNAc(b1-3)Gal(b1-4)[Fuc(a1-3)]GlcNAc(b1-3)Gal(b1-4)[Fuc(a1-3)]GlcNAc
How it was run: as §1

[13] = molecular target: Neu5Ac(a2-3)Gal(b1-4)[Fuc(a1-3)]GlcNAc6S
How it was run: as §1

[14] = molecular target: Neu5Ac(a2-3)Gal6S(b1-4)GlcNAc
How it was run: as §1

Neu5Ac(a2-3)GalNAc = molecular target: Neu5Ac(a2-3)GalNAc
How it was run: as §1

[15] = molecular target: Neu5Ac(a2-3)[GalNAc(b1-4)]Gal(b1-4)Glc
How it was run: as §1

[16] = molecular target: Neu5Ac(a2-3)[GalNAc(b1-4)]Gal(b1-4)GlcNAc
How it was run: as §1

[17] = molecular target: Neu5Ac(a2-3)[Neu5Ac(a2-6)]GalNAc
How it was run: as §1

Neu5Ac(a2-6)Gal = molecular target: Neu5Ac(a2-6)Gal
How it was run: as §1

Neu5Ac(a2-6)Gal(b1-4)Glc = molecular target: Neu5Ac(a2-6)Gal(b1-4)Glc
How it was run: as §1

[18] = molecular target: Neu5Ac(a2-6)Gal(b1-4)GlcNAc
How it was run: as §1

[19] = molecular target: Neu5Ac(a2-6)Gal(b1-4)GlcNAc(b1-3)Gal(b1-4)GlcNAc
How it was run: as §1

[20] = molecular target: Neu5Ac(a2-6)Gal(b1-4)GlcNAc(b1-3)Gal(b1-4)[Fuc(a1-3)]GlcNAc(b1-3)Gal(b1-4)[Fuc(a1-3)]GlcNAc
How it was run: as §1

[21] = molecular target: Neu5Ac(a2-6)Gal(b1-4)GlcNAc6S
How it was run: as §1

Neu5Ac(a2-6)GalNAc = molecular target: Neu5Ac(a2-6)GalNAc
How it was run: as §1

Neu5Ac(a2-8)Neu5Ac = molecular target: Neu5Ac(a2-8)Neu5Ac
How it was run: as §1

[22] = molecular target: Neu5Ac(a2-8)Neu5Ac(a2-3)Gal(b1-4)Glc
How it was run: as §1

[23] = molecular target: Neu5Ac(a2-8)Neu5Ac(a2-3)[GalNAc(b1-4)]Gal(b1-4)Glc
How it was run: as §1

[24] = molecular target: Neu5Ac(a2-8)Neu5Ac(a2-8)Neu5Ac
How it was run: as §1

[25] = molecular target: Neu5Ac(a2-8)Neu5Ac(a2-8)Neu5Ac(a2-3)Gal(b1-4)Glc
How it was run: as §1

[26] = molecular target: Neu5Ac(a2-8)Neu5Ac(a2-8)Neu5Ac(a2-3)[GalNAc(b1-4)]Gal(b1-4)Glc
How it was run: as §1

Neu5Ac(b1-6)GalNAc = molecular target: Neu5Ac(b1-6)GalNAc
How it was run: as §1

[27] = molecular target: Neu5Ac(b2-6)Gal(b1-4)GlcNAc
How it was run: as §1

[28] = molecular target: Neu5Ac9Ac(a2-6)Gal(b1-4)GlcNAc
How it was run: as §1

[29] = molecular target: Neu5Gc(a2-3)Gal(b1-3)GlcNAc
How it was run: as §1

[30] = molecular target: Neu5Gc(a2-3)Gal(b1-3)[Fuc(a1-4)]GlcNAc
How it was run: as §1

Neu5Gc(a2-3)Gal(b1-4)Glc = molecular target: Neu5Gc(a2-3)Gal(b1-4)Glc
How it was run: as §1

[31] = molecular target: Neu5Gc(a2-3)Gal(b1-4)GlcNAc
How it was run: as §1

[32] = molecular target: Neu5Gc(a2-3)Gal(b1-4)[Fuc(a1-3)]GlcNAc
How it was run: as §1

[33] = molecular target: Neu5Gc(a2-6)Gal(b1-4)GlcNAc
How it was run: as §1

Neu5Gc(a2-6)GalNAc = molecular target: Neu5Gc(a2-6)GalNAc
How it was run: as §1

B1: RegIIIbeta (Mus musculus), P35230 (protein)
chain: MLPPTACSVMSWMLLSCLMLLSQVQGEDSLKNIPSARISCPKGSQAYGSYCYALFQIPQTWFDAELACQKRPGGHLVSVLNSAEASFLSSMVKRTGNSYQYTWIGLHDPTLGAEPNGGGWEWSNNDVMNYFNWERNPSTALDRAFCGSLSRASGFLKWRDMTCEVKLPYVCKFTG
glycan array binding signal (z-score) [1]: -0.094 | glycan array binding signal (z-score) [2]: -0.103 | glycan array binding signal (z-score) [3]: -0.036 | glycan array binding signal (z-score) [4]: -0.116 | glycan array binding signal (z-score) (Neu5Ac(a2-3)Gal(b1-4)Glc): -0.115 | glycan array binding signal (z-score) [5]: -0.071 | glycan array binding signal (z-score) [6]: -0.115 | glycan array binding signal (z-score) [7]: -0.036 | glycan array binding signal (z-score) [8]: -0.109 | glycan array binding signal (z-score) [9]: -0.072 | glycan array binding signal (z-score) [10]: -0.108 | glycan array binding signal (z-score) [11]: -0.059 | glycan array binding signal (z-score) [12]: 0.086 | glycan array binding signal (z-score) [13]: -0.079 | glycan array binding signal (z-score) [14]: -0.11 | glycan array binding signal (z-score) (Neu5Ac(a2-3)GalNAc): -0.12 | glycan array binding signal (z-score) [15]: -0.11 | glycan array binding signal (z-score) [16]: -0.087 | glycan array binding signal (z-score) [17]: -0.095 | glycan array binding signal (z-score) (Neu5Ac(a2-6)Gal): -0.12 | glycan array binding signal (z-score) (Neu5Ac(a2-6)Gal(b1-4)Glc): -0.083 | glycan array binding signal (z-score) [18]: -0.103 | glycan array binding signal (z-score) [19]: -0.092 | glycan array binding signal (z-score) [20]: -0.046 | glycan array binding signal (z-score) [21]: -0.079 | glycan array binding signal (z-score) (Neu5Ac(a2-6)GalNAc): -0.121 | glycan array binding signal (z-score) (Neu5Ac(a2-8)Neu5Ac): -0.115 | glycan array binding signal (z-score) [22]: -0.116 | glycan array binding signal (z-score) [23]: -0.11 | glycan array binding signal (z-score) [24]: -0.106 | glycan array binding signal (z-score) [25]: -0.118 | glycan array binding signal (z-score) [26]: -0.073 | glycan array binding signal (z-score) (Neu5Ac(b1-6)GalNAc): -0.119 | glycan array binding signal (z-score) [27]: -0.115 | glycan array binding signal (z-score) [28]: -0.117 | glycan array binding signal (z-score) [29]: -0.121 | glycan array binding signal (z-score) [30]: 0.106 | glycan array binding signal (z-score) (Neu5Gc(a2-3)Gal(b1-4)Glc): -0.119 | glycan array binding signal (z-score) [31]: -0.116 | glycan array binding signal (z-score) [32]: -0.001 | glycan array binding signal (z-score) [33]: -0.122 | glycan array binding signal (z-score) (Neu5Gc(a2-6)GalNAc): -0.124

— the supplement of paper PMC8728848
